Test results published in the supplement of paper PMC3334620.
In all, about 33,000 sequences were measured (“E-score (-0.5 to 0.5)”: median about -0.035, highest 2% from about 0.34 on). The list shows a part of the results.

Each sequence was assayed against T1, Mot3 (UniProt P54785) (assay: PBM E-score (8-mer binding enrichment) (E-score (-0.5 to 0.5)); higher = stronger / more preferred TF binding; most listed sequences are background and not binding sites). Details: protein concentration: 200 nM; construct: GST-full length.
T1 sequence: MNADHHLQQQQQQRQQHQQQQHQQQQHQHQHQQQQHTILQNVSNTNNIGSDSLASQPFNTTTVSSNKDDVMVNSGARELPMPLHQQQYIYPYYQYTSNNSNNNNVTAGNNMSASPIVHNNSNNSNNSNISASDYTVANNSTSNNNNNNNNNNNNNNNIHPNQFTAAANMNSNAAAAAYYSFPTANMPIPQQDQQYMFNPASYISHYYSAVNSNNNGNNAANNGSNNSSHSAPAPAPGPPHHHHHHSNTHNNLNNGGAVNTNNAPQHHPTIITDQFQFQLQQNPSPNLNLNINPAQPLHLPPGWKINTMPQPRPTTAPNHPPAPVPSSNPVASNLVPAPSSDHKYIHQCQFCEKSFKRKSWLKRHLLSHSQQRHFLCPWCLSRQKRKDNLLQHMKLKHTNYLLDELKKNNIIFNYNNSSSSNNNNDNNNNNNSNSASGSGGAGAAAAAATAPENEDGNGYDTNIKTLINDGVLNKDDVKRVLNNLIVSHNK
Summary of the method: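 GST-tagged yeast TFs (full-length or DNA-binding domain) were made by PURExpress in vitro transcription/translation and applied at about 100-200 nM to universal all-10-mer Agilent arrays. The arrays were made double-stranded by primer extension, on fresh or once-stripped slides. Bound protein was detected with fluorescent anti-GST, and scans were normalised with masliner. Each ungapped eight-base word, pooled with its reverse complement, received an E-score (modified Wilcoxon-Mann-Whitney statistic) from the Universal PBM Analysis Suite.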

Sequence	PBM E-score
CCGCGGAC	-0.294
AACACTGT	0.0505
AATGAGAG	-0.202
GGACGACA	0.0208
GGTAGTGA	-0.201
CGCAGAAA	-0.244
CAGTAAAG	0.0534
AACGTTTC	0.172
CTCTTACC	0.0643
GCATTCGA	-0.0683
CAGCAAAA	0.102
CCCCCGCG	-0.32
TCGTCTCA	-0.254
CTCCTCTA	-0.118
CACCAACG	-0.118
AAAGCTAC	-0.0699
ACACGGGG	0.224
AGTCAGTG	-0.157
AGGAAACC	0.42
CTTGCCCA	0.0604
GACGGAAA	-0.17
GGGTAAAA	0.112

Sequence	PBM E-score
CCGTAAAA	0.0155
AAATTTCG	-0.0216
AGCAGCCT	-0.0358
CGCTACAC	0.123
ACTTAACA	0.321
ACAAAGCA	0.168
AGCTCACG	-0.128
CGAGACAA	-0.143
ATCGTAAT	0.126
CCATTCAA	-0.0143
AGCTAATG	-0.127
ATACCTGC	0.096
AGGGACGG	-0.257
GGAGACAC	-0.149
CACTATAC	0.0582
AATGTGTA	0.289
GAGTGAAC	-0.0629
TATCGCAA	-0.0895
CAGAAGCC	-0.321
CGCCGCGC	-0.161
CATTGGCG	-0.0916
ATAGTGAC	-0.0838

Sequence	PBM E-score
CACCCAGA	-0.16
CCTTGTTC	0.0411
ATCCTAAT	-0.0605
ATCATCTA	-0.0877
ACCCAGCA	-0.053
AGGAACAG	0.434
CTACAGAC	0.0592
ATTCTAGG	0.17
GCAGCGAA	-0.14
ATGTTTTC	0.303
ATCAAATA	-0.0238
GATGTGCA	-0.0886
CAAGAACG	0.0431
ATGGTTGC	0.004
ATGACGTA	0.134
GACGACAC	0.0875
CAGATGAA	0.115
AACAGCCG	-0.0546
ACCGGCAA	-0.128
AGTTTACC	0.0908
ACAGCATA	0.133
ACTCTCCT	-0.188

Sequence	PBM E-score
AGCCAGCG	-0.32
CGGAGTGA	-0.142
CAAAGGGG	-0.0204
AGATTCAG	0.114
CCTAGGCC	-0.0992
GCCGACGC	-0.213
ACTCTCTA	-0.0457
AATGTCAG	0.0298
CAAAGATC	0.0196
GCATCTCA	-0.0798
CAAACAAG	-0.00987
CACAACTC	0.0906
AAACGCCC	-0.209
ATGCATCA	0.104
ATACAAGG	0.228
GCAGCGCA	-0.124
CTTTATCA	0.0984
TGAGGCAA	0.389
CCCGTAAC	-0.00854
AGGAAACG	0.339
ACGGTCAG	-0.0838
ACTCTATG	-0.0104

Sequence	PBM E-score
CTCCGGAG	-0.366
CACCCTTC	-0.121
TTACATAA	0.408
TCCGCGGA	-0.0925
CAACAAAA	0.252
GACTTAGA	-0.164
ACATTGAG	-0.0439
CAGTTACG	0.0221
TCCAGAAA	0.138
ATGCTATC	-0.0826
CTAAGTGA	-0.0162
ACTGTGAA	-0.0771
CAAGGCGA	-0.00267
CACTTGCA	-0.04
GGTGAGAA	-0.152
ACTCGATC	-0.173
GGGGAACA	-0.199
CGCTTCAC	-0.0668
ACTCTTGC	0.0127
AGAGTAGG	0.131
ATACCCGA	-0.0916
CTCCCGCC	-0.374
